Laboratory results as given in the supplement of paper PMC6135742.
Where a name gives a salt, the structure may show the parent alone. ± gives the standard deviation of the averaged measurements. The full ranking holds about 2,600 compounds; the median of “MBP+ mature oligodendrocyte number relative to DMSO vehicle control” is about -0.34, and the highest 2% start at about 13. This is one part of the list.

System: jimpy (Plp1 jimpy) mouse iPSC-derived oligodendrocyte progenitor cells
Assay: MBP+ mature oligodendrocyte number relative to DMSO vehicle control (SDs above negative control mean); higher = more surviving jimpy oligodendrocytes (rescue)
Conditions: 10 µM; 3 days
Experimental: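 Primary phenotypic screen of >3,000 bioactive compounds (Selleck L1700 and Sigma LO1280 libraries) at a single dose of 10 µM. Compounds were added to jimpy (Plp1 mutant) mouse iPSC-derived OPCs at the start of thyroid hormone-induced oligodendrocyte differentiation, one well per compound in 384-well plates. After 3 days cells were stained for MBP, Sox10 and DAPI and imaged with an Operetta system. MBP+ oligodendrocyte number and total cell number were expressed as the number of SDs above the mean of the DMSO negative control on the same plate (n=16 control wells per plate). Hits were defined as >=4 SD for oligodendrocytes and >=2 SD for total cells.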

Structure (SMILES)	MBP+ mature oligodendrocyte number
COC[C@H](NC(=O)c1cnc(C)s1)C(=O)N[C@@H](COC)C(=O)N[C@@H](Cc1ccccc1)C(=O)[C@@]1(C)CO1 [Oprozomib (ONX 0912)]	-5.76
NCCS(=O)O [Hypotaurine]	0.973
C[C@H](Oc1cc(-c2cnn(C3CCNCC3)c2)cnc1N)c1c(Cl)ccc(F)c1Cl [(S)-crizotinib]	-4.58
CN(C)CCOC(=O)COc1ccc(Cl)cc1 [Centrophenoxine hydrochloride]	-1.77
Brc1c(NC2=NCCN2)ccc2nccnc12	-0.0327
Brc1c(NC2=NCCN2)ccc2nccnc12 [Brimonidine Tartrate]	4.04
Cc1ccc2c(Cl)cc(Cl)c(O)c2n1 [Chlorquinaldol]	< -6.35
N=C(N)N/N=C/c1c(Cl)cccc1Cl [Guanabenz Acetate]	8.68
N=C(N)N/N=C/c1c(Cl)cccc1Cl [Guanabenz acetate]	2.02
OC(CCN1CCCCC1)(c1ccccc1)C1CCCCC1 (stereo not drawn) [Trihexyphenidyl hydrochloride]	-0.104
CN(CCOc1ccc(CC2SC(=O)NC2=O)cc1)c1ccccn1 (stereo not drawn) [Rosiglitazone]	-0.108
Fc1cc(-c2cccc3ncc(-c4cnn(C5CCNCC5)c4)nc23)cc(F)c1CN1CCOCC1	< -6.01
CCOC(=O)c1c(C)n(C)c2ccc(O)cc12 [Mecarbinate]	-0.647
COc1ccc(C[C@@H]2c3cc(OC)c(OC)cc3CC[N@+]2(C)CCC(=O)OCCCCCOC(=O)CC[N@@+]2(C)CCc3cc(OC)c(OC)cc3[C@H]2Cc2ccc(OC)c(OC)c2)cc1OC [Cisatracurium Besylate]	-0.0525
CC(N)C12CC3CC(CC(C3)C1)C2 (stereo not drawn) [Rimantadine]	-0.647
O=C(NS(=O)(=O)c1ccc(Br)s1)c1ccc(Cl)cc1Cl [Tasisulam]	-0.523
OCCOCCN1CCN(C(c2ccccc2)c2ccc(Cl)cc2)CC1 (stereo not drawn) [Hydroxyzine 2HCl]	10.7
COc1ccc(CNC(=O)Nc2ncc([N+](=O)[O-])s2)cc1	3.03
Cc1cc(-n2c(=O)[nH]c(=O)n(C)c2=O)ccc1Oc1ccc(SC(F)(F)F)cc1 [Toltrazuril]	0.66
CCCn1c(=O)c2[nH]c(-c3ccc(S(=O)(=O)O)cc3)nc2n(CCC)c1=O [1,3-Dipropyl-8-p-sulfophenylxanthine]	0.353
Cc1ccccc1N1C(=O)c2cc(S(N)(=O)=O)c(Cl)cc2NC1C (stereo not drawn) [Metolazone]	-0.109 ± 1.7
CN(C)CCC(c1ccc(Br)cc1)c1ccccn1 (racemic) [(±)-Brompheniramine maleate]	-0.629
O=C1N(c2ccccc2)c2ccccc2C1(Cc1ccncc1)Cc1ccncc1 [Linopirdine]	-1.07
